PubChem BioAssay AID588855 (National Center for Advancing Translational Sciences (NCATS), 2011)
Hit rate of the full screen: of about 410,000 compounds, about 5,000 (1.2%) were called active. Inconclusive means that the source gave no clear call. Such entries were picked first, then a sample of the others. Calls come from the whole dose curve; as a rule, active = well fitted inhibition curve with a large enough effect; inconclusive = small, poorly fitted or top-dose-only effect; inactive = no such curve, though single readings can be large or run the other way. Potencies beside an inconclusive call are fits to weak or partial responses and may not hold up.

Assay: qHTS for Inhibitors of TGF-b; note: nearly all actives have a fitted effect of over 65% in size
Conditions: HepG2 CAGA-GFP TGF-b/SMAD3 reporter, GFP fluorescence, 18 h, TGF-beta stimulated, 500 pg/mL final; series mostly up to 46.1 µM
In short: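 HEPG2 CAGA-GFP cells (1000/well, DMEM with 1% FBS) were pre-incubated 2 h at 37 degrees C, given compound by pin tool, then stimulated with TGF-beta at 500 pg/mL final for 18 h before per-cell GFP fluorescence imaging.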
Potency is the fitted concentration of half-maximal effect; tags give direction and shape of the fitted curve.

| Structure (SMILES) | Potency |
| --- | --- |
| CCN(CC)c1ccc(/C=N/NC(=O)c2cc(C)nc3ccccc23)cc1 | inactive |
| c1ccc2c(c1)NC1(CCCCC1)n1c-2nc2ccccc21 | inactive |
| COC(=O)c1ccc(CNC(=O)c2ccc(S(=O)(=O)N3CCCC(C)C3)cc2)cc1 (centres undefined) | inconclusive: 15.8 µM [inhibitor, single point] |
| COc1ccc(-c2nc3c(C(=O)NCCN(C)C)cccc3c3ccccc23)cc1 | inactive |
| Cc1cccc(C(=O)Nc2ccc(O)cc2C(=O)O)c1 | inconclusive: 5.62 µM [inhibitor, single point] |
| O=C(CSc1nnc(-c2ccc(S(=O)(=O)N3CCCC3)cc2)o1)NCc1ccccc1 | inconclusive: 8.91 µM [inhibitor, partial curve] |
| C[C@@H]1CN([C@H](C)CO)C(=O)CCCn2cc(nn2)CO[C@H]1CN(C)C(=O)C1CCCCC1 | inactive |
| CC(C)n1c(=O)c2ccccc2n1Cc1cn(-c2ccc(Cl)cc2)nn1 | inactive |
| CCC(C)NC(=O)c1c(C)oc2ncn(CC(C)C)c(=O)c12 (centres undefined) | inactive |
| O=C(CCS(=O)(=O)c1cc(Br)cc2c1N(C(=O)C1CC1)CC2)N1CCN(c2cccc(Cl)c2)CC1 | inconclusive: 6.31 µM [inhibitor, partial curve] |
| COc1cc(OC)cc(C(=O)NNC(=O)CCNS(=O)(=O)c2ccc(C)c(C)c2)c1 | inconclusive: 17.8 µM [inhibitor, single point] |
| COc1ccc(-c2coc3cc(O[C@@H]4O[C@H](CO)[C@@H](O)[C@H](O)[C@H]4O)ccc3c2=O)cc1 | inactive |
| CCC(C)(C)C1CCc2[nH]nc(C(=O)NCc3ccc(Cl)cc3)c2C1 (centres undefined) | inconclusive: 0.891 µM [inhibitor, full curve, poor fit] |
| Cc1ccc(C(=O)NC(=S)N2CCN(C(=O)OC(C)(C)C)CC2)cc1Br | inconclusive: 14.1 µM [inhibitor, single point] |
| CCOc1ccc(S(=O)(=O)/N=C(/Nc2ccc(S(N)(=O)=O)cc2)c2ccccc2)cc1 | inconclusive: 25.1 µM [inhibitor, partial curve, poor fit] |
| C=CC(=O)Nc1ccc(N(C)c2ccnc(Nc3ccc(N4CCN(C)CC4)cc3)n2)cc1 | inconclusive: 15.8 µM [inhibitor, partial curve, poor fit] |
| Cc1nc2ccc(NS(=O)(=O)c3cccc([N+](=O)[O-])c3)cc2s1 | inactive |
| COc1ccc(-c2[nH]c(-c3ccc(Cl)cc3)nc2SCC(=O)NCC2CCCO2)cc1 (centres undefined) | inconclusive: 5.01 µM [inhibitor, full curve] |
| Cc1cccc(/C=C/c2onc(C)c2S(=O)(=O)N2CCC(C(=O)N3CCCCC3)CC2)c1 | inconclusive: 15.8 µM [inhibitor, single point] |
